Data published in article PMC8615847, “The σ1 Receptor and the HINT1 Protein Control α2δ1 Binding to Glutamate NMDA Receptors: Implications in Neuropathic Pain” (Biomolecules, 2021).

How the values were obtained:
[1] = target: T1, recombinant sigma 1 receptor (mouse, UniProt O55242 1-223); assay: pull-down; sequential: σ1R (100 nM) bound to agarose-NR1 C1, unbound removed, then (α2)δ1 (100 nM) for 30 min at RT; or NR1 C1 (100 nM) added to agarose-(α2)δ1-σ1R; 50 mM Tris-HCl pH 7.4, 0.2% CHAPS, 2.5 mM CaCl2; Western blot; conditions: both partners purified
T1 construct: sigma 1 receptor, mouse, coding region of AF004927; also called σ1R; σ1Rs; source: E. coli BL21 (KRX), purified (GSTrap FF or HaloLink resin, ion exchange)

[2] = target: T2, recombinant histidine triad nucleotide-binding protein 1 (mouse, UniProt P70349 1-126); assay: pull-down; HINT1-NR1 C1 complexes exposed to (α2)δ1 in the absence or presence of calcium (Supplementary Figure S8D); conditions: both partners purified
T2 construct: also called HINT1; HINT1 protein; source: E. coli BL21 (KRX), purified (GSTrap FF or HaloLink resin, ion exchange)
T2 sequence (looked up): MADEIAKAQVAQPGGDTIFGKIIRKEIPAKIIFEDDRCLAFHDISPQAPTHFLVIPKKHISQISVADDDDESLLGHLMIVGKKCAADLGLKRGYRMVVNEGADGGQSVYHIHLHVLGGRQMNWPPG

binding result [1]: binds
binding result [2]: binds
B1: cytosolic C0-C1-C2 region of the glutamate NMDAR NR1 subunit (domain or fragment)
chain: not shown
notes: glutamate NMDA receptor NR1 subunit, mouse, cytosolic C0-C1-C2 region, […] of NM_008169; Used attached to agarose as bait and free in solution (100 nM) as prey; also called NR1 C1; NR1 C0-C1-C2; source: E. coli BL21 (KRX), purified (GSTrap FF or HaloLink resin, ion exchange)
